Test results: patent US9024027B2, “Derivatives of 1-phenyl-2-pyridinyl alkyl alcohols as phosphodiesterase inhibitors” (Chiesi Farmaceutici S.p.A., priority 2011, dated 2015)
“And” between values parts separate entries of the source, which are not always exact repeats. Equal entries are not always repeated. Structures can show the parent of a compound that is named as a salt. Some of these results come from one statement about several compounds together.

System: PDE4
Assay: In vitro determination of PDE4 inhibitory activity in the cell free assay (cAMP disappearance, U937 cell lysate supernatant)
Format: biochemical
Conditions: U937 human monocytic cell lysate supernatant, read-out: PDE4 inhibition (IC50, 50% inhibition of cAMP disappearance)

| Structure (SMILES) | IC50 |
| --- | --- |
| O=C(CN1C(=O)c2ccc(NO)cc2C1=O)O[C@@H](Cc1c(Cl)c[n+]([O-])cc1Cl)c1ccc(OC(F)F)c(OCC2CC2)c1 [Compound 169, (S)-3,5-dichloro-4-(2-(3-(cyclopropylmethoxy)-4-(difluoromethoxy)phenyl)-2-(2-(5-(hydroxyamino)-1,3-dioxoisoindolin-2-yl)acetoxy)ethyl)pyridine 1-oxide] | < 0.1 nM |
| COc1ccnc(CN(c2ccc3c(c2)C(=O)N(CC(=O)O[C@@H](Cc2c(Cl)c[n+]([O-])cc2Cl)c2ccc(OC(F)F)c(OCC4CC4)c2)C3=O)S(C)(=O)=O)c1 [Compound 194] | < 0.1 nM and 0.1 to 1 nM |
| O=C(Cn1ccc2cnccc21)O[C@@H](Cc1c(Cl)c[n+]([O-])cc1Cl)c1ccc(OC(F)F)c(OCC2CC2)c1 [Compound 61] | < 0.1 nM |
| COc1ccc2c(c1)N(CC(=O)O[C@@H](Cc1c(Cl)c[n+]([O-])cc1Cl)c1ccc(OC(F)F)c(OCC3CC3)c1)C(=O)C2=O [Compound 64, (S)-3,5-dichloro-4-(2-(3-(cyclopropylmethoxy)-4-(difluoromethoxy)phenyl)-2-(2-(6-methoxy-2,3-dioxoindolin-1-yl)acetoxy)ethyl)-pyridine 1-oxide] | 0.1 to 1 nM |
| CS(=O)(=O)Nc1ccc2c(c1)oc(=O)n2CC(=O)O[C@@H](Cc1c(Cl)c[n+]([O-])cc1Cl)c1ccc(OC(F)F)c(OCC2CC2)c1 [Compound 138, (S)-3,5-Dichloro-4-(2-(3-(cyclopropylmethoxy)-4-(difluoromethoxy)phenyl)-2-(2-(6-(methylsulfonamido)-2-oxobenzo[d]oxazol-3(2H)-yl)acetoxy)-ethyl)pyridine 1-oxide] | < 0.1 nM |
| COc1cccc2c1C(=O)N(CC(=O)O[C@@H](Cc1c(Cl)c[n+]([O-])cc1Cl)c1ccc(OC(F)F)c(OCC3CC3)c1)C2=O [Compound 68, (S)-3,5-dichloro-4-(2-(3-(cyclopropylmethoxy)-4-(difluoromethoxy)phenyl)-2-(2-(4-methoxy-1,3-dioxoisoindolin-2-yl)acetoxy)-ethyl)pyridine 1-oxide] | < 0.1 nM |
| Cc1noc(C)c1CN(c1ccc2c(c1)C(=O)N(CC(=O)O[C@@H](Cc1c(Cl)c[n+]([O-])cc1Cl)c1ccc(OC(F)F)c(OCC3CC3)c1)C2=O)S(C)(=O)=O [Compound 191] | < 0.1 nM |
| O=C(CN1C(=O)c2cccnc2C1=O)O[C@@H](Cc1c(Cl)c[n+]([O-])cc1Cl)c1ccc(OC(F)F)c(OCC2CC2)c1 [Compound 28] | < 0.1 nM |
| CSCCC(C(=O)OC(Cc1c(Cl)c[n+]([O-])cc1Cl)c1ccc(OC(F)F)c(OCC2CC2)c1)N1C(=O)c2ccccc2C1=O (stereo not shown) [Compound 15] | 0.1 to 1 nM |
| O=C(CN1C(=O)c2ccc(OCc3cccnc3)cc2C1=O)O[C@@H](Cc1c(Cl)c[n+]([O-])cc1Cl)c1ccc(OC(F)F)c(OCC2CC2)c1 [Compound 248, (S)-3,5-dichloro-4-(2-(3-(cyclopropylmethoxy)-4-(difluoromethoxy)phenyl)-2-(2-(1,3-dioxo-5-(pyridin-3-ylmethoxy)isoindolin-2-yl)acetoxy)ethyl)pyridine 1-oxide 2,2,2-trifluoroacetic acid salt] | < 0.1 nM |
| O=C(CN1C(=O)C(=O)c2cc(F)ccc21)O[C@@H](Cc1c(Cl)c[n+]([O-])cc1Cl)c1ccc(OC(F)F)c(OCC2CC2)c1 [Compound 53] | 0.1 to 1 nM |
| CS(=O)(=O)Nc1ccc2c(c1)C(=O)C(=O)N2CC(=O)O[C@@H](Cc1c(Cl)c[n+]([O-])cc1Cl)c1ccc(OC(F)F)c(OCC2CC2)c1 [Compound 99, (S)-3,5-dichloro-4-(2-(3-(cyclopropylmethoxy)-4-(difluoromethoxy)phenyl)-2-(2-(5-(methylsulfonamido)-2,3-dioxoindolin-1-yl)acetoxy)ethyl)pyridine 1-oxide] | < 0.1 nM |
| CS(=O)(=O)NCc1ccc2c(c1)C(=O)N(CC(=O)O[C@@H](Cc1c(Cl)c[n+]([O-])cc1Cl)c1ccc(OC(F)F)c(OCC3CC3)c1)C2=O [Compound 254, (S)-3,5-dichloro-4-(2-(3-(cyclopropylmethoxy)-4-(difluoromethoxy)phenyl)-2-(2-(5-(methylsulfonamidomethyl)-1,3-dioxoisoindolin-2-yl)acetoxy)ethyl)pyridine 1-oxide] | < 0.1 nM |
